# Measured values reported in patent US12564641B2 (EISAI R&D MANAGEMENT CO., LTD., priority 2019, dated 2026).
# Like-named read-outs stand apart in the source and are kept apart here.
# B1: MORAb109 (DAR2) (conjugate)
# heavy: QVQLVESGGGVVQPGRSLRLSCAASGIDLSSYAMSWVRQAPGKGLEWIGVIDISGNRFYADWVKGRFTISRDNSKNTLYLQMSSLRAEDTAVYYCARVDSRAWGPFNLWGQGTLVTVSS[skipping human IgG1 constant region]
# light: DYQMTQSPSSLSASVGDRVTITCQASQSIFSYLAWYQQKPGKAPKLLIYDASDLASGVPSRFSGSGSGTDFTLTISSLQCEDAATYYCQQGYTRSDVDNAFGGGTKVEIKRTVAAPSVFIFPPSDEQLKSGTASVVCLLNNFYPREAKVQWKVDNALQSGNSQESVTEQDSKDSTYSLSSTLTLSKADYEKHKVYACEVTHQGLSSPVTKSFNRGEC
# modifications: non-natural residues
# B2: MORAb109_DAR6 (conjugate)
# heavy: B1 heavy
# light: B1 light
# B3: MORAb109 (DAR6) (conjugate)
# heavy: B1 heavy
# light: B1 light
# B4: MORAb109_DAR2 (conjugate)
# heavy: B1 heavy
# light: B1 light
# modifications: non-natural residues
# What was measured:
# [1] = test system: various cell lines (51 cell lines); assay: In vitro potency (IC50, Crystal Violet) in cell lines with varying mesothelin expression; type: cell-based
# MSLN-positive cell lines = assay: In vitro cytotoxicity (IC50, Crystal Violet) on MSLN-positive cell lines (Example 11); conditions: for IC50: read-out: In vitro cell based potency, IC50
# MSLN-negative cell lines = assay: In vitro cytotoxicity (IC50, Crystal Violet) on MSLN-negative cell lines (Example 11); type: cell-based; conditions: for IC50: read-out: In vitro cell based potency, IC50
# Protocol: Plates were incubated at 37° C. 5% CO2 for an additional 5 days. […] Plates were read at 570 nm.
# [2] = A431-K5 cells (MSLN MFI 1430.3)
# [3] = Kuramochi cells (MSLN MFI 211.2)
# [4] = NCI-H292 cells (MSLN MFI 108.6)
# [5] = NCI-H1355-Sorted cells (MSLN MFI 32.7)
# [6] = NCI-H1355 cells (MSLN MFI 11.5)
# [7] = NCI-H1568/MSLN cells (MSLN MFI 4474)
# [8] = NCI-H1573 cells (MSLN MFI 17.4)
# [9] = NCI-H1650/MSLN cells (MSLN MFI 1865.5)
# [10] = NCI-H1650 cells (MSLN MFI 31.5)
# [11] = NCI-H2110 cells (MSLN MFI 112.2)
# [12] = NCI-H2126 cells (MSLN MFI 73.6)
# [13] = NCI-H1568/MSLN cells (MSLN MFI 4474.00)
# [14] = OVCAR3-A1 cells (MSLN MFI 220.0)
molecule,measurement,setting,value
B1,IC50,[1]; [2],0.45 nM
same,IC50,[1]; A431 cells (MSLN MFI 5.6),71.5 nM
same,IC50,[1]; A549 cells (MSLN MFI 14.2),276 nM
same,IC50,[1]; BxPC3 cells (MSLN MFI 15.59),86.2 nM
same,IC50,[1]; CNE2 cells (MSLN MFI 147.7),69.5 nM
same,IC50,[1]; COV362 cells (MSLN MFI 113.5),193 nM
same,IC50,[1]; CaOV-3 cells (MSLN MFI 137.6),20.9 nM
same,IC50,[1]; Capan-2 cells (MSLN MFI 36),138 nM
same,IC50,[1]; EGI-1 cells (MSLN MFI 14.8),188 nM
same,IC50,[1]; H226 cells (MSLN MFI 725.3),7.46 nM
same,IC50,[1]; HAC-2 cells (MSLN MFI 172.3),228 nM
same,IC50,[1]; HCC1806 cells (MSLN MFI 189.3),35.5 nM
same,IC50,[1]; HEC-1-A cells (MSLN MFI 16.5),141 nM
same,IC50,[1]; HEC-1-B cells (MSLN MFI 16.9),66.3 nM
same,IC50,[1]; HEC-251 cells (MSLN MFI 53.3),67.2 nM
same,IC50,[1]; HK1 cells (MSLN MFI 39.2),198 nM
same,IC50,[1]; HNE-1-T1 cells (MSLN MFI 79.3),347 nM
same,IC50,[1]; HNE-1 cells (MSLN MFI 110.8),239 nM
same,IC50,[1]; HONE1 cells (MSLN MFI 108.6),198 nM
same,IC50,[1]; JIMT-1 cells (MSLN MFI 36.4),61.8 nM
same,IC50,[1]; [3],898 nM
same,IC50,[1]; MFE-280 cells (MSLN MFI 45.1),196 nM
same,IC50,[1]; MKN1 cells (MSLN MFI 22.06),20.1 nM
same,IC50,[1]; MKN7 cells (MSLN MFI 18.48),86.5 nM
same,IC50,[1]; MKN45 cells (MSLN MFI 57.94),100 nM
same,IC50,[1]; MKN74 cells (MSLN MFI 7.73),67 nM
same,IC50,[1]; NCI-H23 cells (MSLN MFI 4.42),66.7 nM
same,IC50,[1]; [4],147 nM
same,IC50,[1]; NCI-H322 cells (MSLN MFI 83.9),62.8 nM
same,IC50,[1]; [5],96.9 nM
same,IC50,[1]; [6],79.8 nM
same,IC50,[1]; [7],1.69 nM
same,IC50,[1]; [8],60.4 nM
same,IC50,[1]; [9],1 nM
same,IC50,[1]; [10],92.2 nM
same,IC50,[1]; [11],52.2 nM
same,IC50,[1]; [12],87.9 nM
same,IC50,[1]; NCI-N87 cells (MSLN MFI 125.8),14.7 nM
same,IC50,[1]; OVCAR3 A1 cells (MSLN MFI 220),0.005 nM
same,IC50,[1]; PC9 cells (MSLN MFI 11.24),85.1 nM
same,IC50,[1]; SNU216 cells (MSLN MFI 94.91),73.4 nM
same,IC50,[1]; SNU-245 cells (MSLN MFI 23.9),356 nM
same,IC50,[1]; SNU-478 cells (MSLN MFI 53.8),228 nM
same,IC50,[1]; SNU-1196 cells (MSLN MFI 40.2),128 nM
same,IC50,[1]; SUNE1 cells (MSLN MFI 212.4),77.8 nM
same,IC50,[1]; T-47D cells (MSLN MFI 4.4),95.9 nM
B2,% Max Killing,MSLN-positive cell lines; [4],75.34%
same,% Max Killing,MSLN-positive cell lines; [13],77.89%
same,% Max Killing,MSLN-positive cell lines; [14],98.47%
same,IC50,MSLN-positive cell lines; [4],4.8 nM
same,IC50,MSLN-positive cell lines; [13],1.09 nM
same,IC50,MSLN-positive cell lines; [14],0.02 nM
same,% Max Killing,MSLN-negative cell lines; A431 cells (MSLN MFI 5.6),90.76%
same,IC50,MSLN-negative cell lines; A431 cells (MSLN MFI 5.6),20.1 nM
same,% Max Killing,MSLN-negative cell lines; BxPC3 cells (MSLN MFI 15.59),94.63%
same,IC50,MSLN-negative cell lines; BxPC3 cells (MSLN MFI 15.59),2.66 nM
same,% Max Killing,MSLN-negative cell lines; SKOV3 cells (MSLN MFI 20),72.79%
same,IC50,MSLN-negative cell lines; SKOV3 cells (MSLN MFI 20),21.8 nM
B3,IC50,[1]; [2],0.35 nM
same,IC50,[1]; A431 cells (MSLN MFI 5.6),14.2 nM
same,IC50,[1]; A549 cells (MSLN MFI 14.2),41.3 nM
same,IC50,[1]; AsPC1 cells (MSLN MFI 33.47),3.13 nM
same,IC50,[1]; BxPC3 cells (MSLN MFI 15.59),5.88 nM
same,IC50,[1]; CNE2 cells (MSLN MFI 147.7),1.64 nM
same,IC50,[1]; COV362 cells (MSLN MFI 113.5),45.3 nM
same,IC50,[1]; CaOV-3 cells (MSLN MFI 137.6),0.51 nM
same,IC50,[1]; Capan-2 cells (MSLN MFI 36),1.99 nM
same,IC50,[1]; EGI-1 cells (MSLN MFI 14.8),15.4 nM
same,IC50,[1]; H226 cells (MSLN MFI 725.3),0.13 nM
same,IC50,[1]; HAC-2 cells (MSLN MFI 172.3),320 nM
same,IC50,[1]; HCC1806 cells (MSLN MFI 189.3),0.24 nM
same,IC50,[1]; HEC-1-A cells (MSLN MFI 16.5),23.7 nM
same,IC50,[1]; HEC-1-B cells (MSLN MFI 16.9),1.6 nM
same,IC50,[1]; HEC-251 cells (MSLN MFI 53.3),0.67 nM
same,IC50,[1]; HK1 cells (MSLN MFI 39.2),5.88 nM
same,IC50,[1]; HNE-1-T1 cells (MSLN MFI 79.3),11.3 nM
same,IC50,[1]; HNE-1 cells (MSLN MFI 110.8),2.03 nM
same,IC50,[1]; HONE1 cells (MSLN MFI 108.6),5.88 nM
same,IC50,[1]; JIMT-1 cells (MSLN MFI 36.4),11.4 nM
same,IC50,[1]; [3],0.1 nM
same,IC50,[1]; Lu65 cells (MSLN MFI 13.13),15.8 nM
same,IC50,[1]; MFE-280 cells (MSLN MFI 45.1),165 nM
same,IC50,[1]; MKN1 cells (MSLN MFI 22.06),2.89 nM
same,IC50,[1]; MKN7 cells (MSLN MFI 18.48),10.4 nM
same,IC50,[1]; MKN45 cells (MSLN MFI 57.94),10.4 nM
same,IC50,[1]; MKN74 cells (MSLN MFI 7.73),9.62 nM
same,IC50,[1]; MOR/CPR cells (MSLN MFI 120.79),5.68 nM
same,IC50,[1]; NCI-H23 cells (MSLN MFI 4.42),17.3 nM
same,IC50,[1]; [4],6.37 nM
same,IC50,[1]; NCI-H322 cells (MSLN MFI 83.9),3.62 nM
same,IC50,[1]; [5],6.48 nM
same,IC50,[1]; [6],7.09 nM
same,IC50,[1]; [7],1.08 nM
same,IC50,[1]; [8],6.46 nM
same,IC50,[1]; [9],0.57 nM
same,IC50,[1]; [10],4.09 nM
same,IC50,[1]; [11],4.17 nM
same,IC50,[1]; [12],10.8 nM
same,IC50,[1]; NCI-N87 cells (MSLN MFI 125.8),0.1 nM
same,IC50,[1]; OVCAR3 A1 cells (MSLN MFI 220),0.005 nM
same,IC50,[1]; PC9 cells (MSLN MFI 11.24),15.2 nM
same,IC50,[1]; SNU216 cells (MSLN MFI 94.91),0.29 nM
same,IC50,[1]; SNU-478 cells (MSLN MFI 53.8),55.2 nM
same,IC50,[1]; SNU-1196 cells (MSLN MFI 40.2),6.49 nM
same,IC50,[1]; SUNE1 cells (MSLN MFI 212.4),0.27 nM
same,IC50,[1]; T-47D cells (MSLN MFI 4.4),22 nM
same,IC50,[1]; TFK1 cells (MSLN MFI 132.81),5.65 nM
B4,% Max Killing,MSLN-positive cell lines; [4],56.22%
same,% Max Killing,MSLN-positive cell lines; [13],73.49%
same,% Max Killing,MSLN-positive cell lines; [14],98.39%
same,IC50,MSLN-positive cell lines; [4],> 300 nM
same,IC50,MSLN-positive cell lines; [13],2.17 nM
same,IC50,MSLN-positive cell lines; [14],0.01 nM
same,% Max Killing,MSLN-negative cell lines; A431 cells (MSLN MFI 5.6),84.97%
same,IC50,MSLN-negative cell lines; A431 cells (MSLN MFI 5.6),109 nM
same,% Max Killing,MSLN-negative cell lines; BxPC3 cells (MSLN MFI 15.59),90.62%
same,IC50,MSLN-negative cell lines; BxPC3 cells (MSLN MFI 15.59),86.2 nM
same,% Max Killing,MSLN-negative cell lines; SKOV3 cells (MSLN MFI 20),58.41%
same,IC50,MSLN-negative cell lines; SKOV3 cells (MSLN MFI 20),214 nM
